# Assay results taken from the RNAGym collection of RNA variant scans (doi:10.7554/elife.90254).
# Read counts are not given, so values of variants with three or more changes are uncertain.
# B1: LINE1-mini (parent)
# chain: GGCAGAGCUCAACACAGCGUGGCAAAGUGGCUGUGGCUAGACUGCC
# Variants of: B1
# Assay: self-cleavage, relative activity (ratio to wild type); higher = more cleavage; in vitro, sequencing; the parent is a self-cleaving ribozyme
row,Variant,self-cleavage
1,C10U A12C C15A U32A C37A U38A G44U,0.01
2,C10G C45G C46A,0.05
3,C10A G22U U32C,0.02
4,C10U A11U A12C G27C G30C U32G,0
5,C10U C15A G17A C18G G19C C42G U43G,0.01
6,C10A G19U C23G G27U,0.02
7,C10A G30U A41G,0.03
8,C10A U34A G40U,0.04
9,C10U G30A G40C C46A,0.03
10,C10G C23U G27C G29U,0.05
11,C10U C18U C31U,0.02
12,C10G A11C C15U A24G C37A A39G,0.01
13,C10U G17A G21C G33C,0.04
14,C10G G27U C37U G40A,0.01
15,C10U G21C C46A,0.12
16,C10U G33U C46U,0.03
17,C10A G19C U38G G44U,0.01
18,C10U A16C G27A,0.11
19,C10U G27A G29U,0.05
20,C10A G21A A24U U43G,0
21,C10U A16C U20C C23A,0.11
22,C10A G27U G30C C46A,0.01
23,C10A G29U U34A A41C,0.02
24,C10A G30U A39G,0.01

row,Variant,self-cleavage
1,C10G U32A U38A G40U A41U,0
2,C10A G21A U28C A41U,0
3,C10G A16U G17U A25G,0.03
4,C10G G17A A41C,0.03
5,C10A G27A C31A,0.03
6,C10U A11U A14U G21C C37G G44C C45U,0.01
7,C10G G21U U43G,0.01
8,C10U A11G C15A C18G G19U G35C,0.01
9,C10G A16G U20A A26G C37U G40U C42U C45U,0
10,C10A G29U G44A,0.01
11,C10G C31G A39U C46G,0.02
12,C10A G22A A25U,0.02
13,C10A G33U G40A,0.01
14,C10A G29A G30A G40U,0.02
15,C10U A12C C37G U38A,0.01
16,C10G G22U C31A G44A,0.01
17,C10G G21U U28A,0.05
18,C10U G30A G36A,0.04
19,C10U C18G C23U,0.15
20,C10G C18U G29A G44C,0.18
21,C10A G44A C46A,0.06
22,C10G A16U C42U,0.01
23,C10A U34G C46A,0.02
24,C10U G19C G22A A26C G29C A39U,0.18

row,Variant,self-cleavage
1,C10U A11C A14C A26G U32A,0.02
2,C10A G21A G33A,0.01
3,C10A G35A C46G,0.02
4,C10A G22C U28A G35C,0.01
5,C10A U32A U38C A39G A41U,0.02
6,C10U G19U G35A,0.05
7,C10U G27A C31A C45G,0.06
8,C10A G35U U43G,0.02
9,C10G G33A U43A,0.02
10,C10G C23G G35A C46A,0.02
11,C10U C13A G36A C42U,0.03
12,C10G G19C C23A,0.03
13,C10A G22U G44A C46G,0.01
14,C10U A24U A39U,0.41
15,C10A U20A G22A U32C,0.02
16,C10G C23A U32C U34G C45A,0.01
17,C10U C13A U20A A39G,0
18,C10U A11G A14G,0
19,C10A G36U U43A,0
20,C10G C31U G33A,0.03
21,C10A G22C U32A,0
22,C10G A39U A41C,0.02
23,C10A G19U A41G C45U,0.01
24,C10A G21A C31G,0.03

row,Variant,self-cleavage
1,C10U A12U C15U C31G U32C C42U,0.02
2,C10G G22U G33A,0.08
3,C10G G19C G21U G44U,0.01
4,C10U A14C G29A G40U,0.02
5,C10A G21C G27C C45G,0
6,C10U A11U A12G C18G G35A,0.01
7,C10U G17U A25U C46A,0.04
8,C10U A11G A25G G35A,0.01
9,C10U A16C G30C,0.09
10,C10G G19C G29U,0.12
11,C10A U20C A24C A26C,0.4
12,C10A U28G C31A,0.03
13,C10U A25C A39C,0.14
14,C10G A11C G19C C37A,0.01
15,C10A U20A G21A C45A C46G,0.01
16,C10G G40U C42A,0
17,C10U G19U C31A,0.05
18,C10G A12C G36U G40C C45A,0.01
19,C10U G22A G36U C37A,0.02
20,C10A U20C U28A,0.03
21,C10U G21A U38G,0.04
22,C10U A14G A41U,0.04
23,C10G G21A C23U A24G A26C,0.22
24,C10A G22C U32C U34C,0.08

row,Variant,self-cleavage
1,C10G C23A C45U,0.11
2,C10A U28A A39U,0.15
3,C10G C31G C37G C45A,0
4,C10U A12G C13U C31A G44U,0.04
5,C10U C13U A26C C37U,0
6,C10U A12C A14U G44C,0.02
7,C10G C13G U20C G21A U32C A41U,0.02
8,C10A G21A G30U G35U,0.03
9,C10G A14C G17C G44U,0
10,C10G A24C G33C,0.03
11,C10A G21C C42U C46A,0
12,C10U A14G G19C,0.05
13,C10A G27U G29C,0.02
14,C10A G27U G29A,0.06
15,C10U C15U G29U,0.19
16,C10U A25C U34G U38A,0
17,C10U G35A G40C,0.1
18,C10U C13A A16G G21U,0.02
19,C10G A11C G19C C23A G30C,0.02
20,C10G G19C A41C,0.02
21,C10A U38G C45A,0.03
22,C10G C13A A14C G40C G44U,0.01
23,C10G A12G G30C C31U,0
24,C10U C15U A26G G29C G36A,0.03

row,Variant,self-cleavage
1,C10G A12U G40A,0.03
2,C10U A14G C31G C46G,0.07
3,C10A U28A G30C A41G,0.01
4,C10U G36U A41G U43G,0
5,C10G G19A G29C U38G G44C,0.02
6,C10U A12C C18U C23G G36A,0.02
7,C10U A24U A26G C31A,0.03
8,C10G G27C C31A C45A,0.02
9,C10G U38C C45A,0.01
10,C10A U20C C37A,0
11,C10G A11G U28C G35C,0
12,C10A G27C C31G G36A C46U,0.01
13,C10G A11U C23A G30C,0.03
14,C10U A12U C45A C46G,0.05
15,C10U C15G A16G G19U U38G,0.03
16,C10U G29U C31U,0.18
17,C10U G29U C31G,0.01
18,C10G G27A G40U A41G,0.01
19,C10A G21C C23A,0.04
20,C10G G36A C42U U43C,0.01
21,C10G C15A U32C,0.01
22,C10U G22C G33U,0.04
23,C10G A12G A14G G19C C23A U34A,0
24,C10A G21C A39C,0.09

row,Variant,self-cleavage
1,C10A U32G G35U,0.01
2,C10U C23A A25C C31A U32A G40A,0.02
3,C10G C13G A14C,0.02
4,C10A U38C G44A,0.25
5,C10U G22U G35C,0.03
6,C10U A14G C42G,0
7,C10G U32A A39G,0
8,C10U G27A G36U,0.04
9,C10A G44C C45U,0.02
10,C10A G35U A39U,0.02
11,C10U G33A G40U,0.05
12,C10U C15G G40A C45A,0.02
13,C10U C31G G44A C46A,0.02
14,C10U A14G G22A,0.11
15,C10U C18G A25G U43A,0.02
16,C10U A11G G36U,0.02
17,C10G A12U A14U C18A U28G G40U,0
18,C10A G27C U34C C45U,0.01
19,C10U A16U C23U A24U C42U,0
20,C10G G21A U32A U34A,0.02
21,C10A G30C U38A,0.11
22,C10U A14G G35U,0.07
23,C10G A24G G33A U38C C46G,0
